Measured values taken from the supplement of paper PMC11417369.
The other results are listed elsewhere or left out.

System: PfAP2-HC AP2 domain (GST-tagged)
Assay: gcPBM binding intensity (ln(normalized median fluorescence intensity)); higher = stronger DNA binding
Outline: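 An Agilent 4 × 180k array of primer-extended double-stranded 36-bp intergenic genomic probes, with negative controls, was incubated for 1 h with GST-tagged P. falciparum DNA-binding domains expressed in E. coli. Alexa488 anti-GST antibody detected bound protein, scanned at 488 nm. Binding intensity is the highest Masliner-normalised natural-log median intensity across replicate spots of either probe orientation.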

Row | Sequence | gcPBM binding intensity (ln)
1 | AAAAAACATTTGATCTGTACGCATAGACAATTATAT [XGTACX_site960] | 9.57
2 | AATAATATGTTATCTCTTACACATATAAAAAATAAA [XGTACX_negctrl_site370] | 9.53
3 | TAAAAGAAAGCACATACACACACAAAAAAAAAAAAG [CACACA_site8159] | 10.4
4 | AATTAAATGATTTATACATGCATATAAATATAAATA [TGCATGCA_site579] | 9.65
5 | AGTAGAAAAGGAACATGTACGAATTAAAAAAATAAT [XGTACX_site2347] | 9.89
6 | TCTGTAAATATGTATACACACATATATGATCAATAT [CACACA_site3234] | 9.9
7 | ACATATATATATATATATATATATATATTTATTTAT [CACACA_negctrl_site734] | 9.63
8 | TACACCATGATACATACACACAGACATATACACATT [CACACA_site6601] | 10
9 | CAATATATTTGATTTACACACTTACAATGTATTTAA [CACACA_site5632] | 9.79
10 | ATAATCCTTAGACACACACACACACGAATAAATAAA [CACACA_site6364] | 11.3
11 | CGAAAAAATAAAAAAAAAATAAAATAAAATAAATAA [TGCATGCA_negctrl_site278] | 9.58
12 | TTATACTGTACAAAAAGAATAGCAGTATAACAAAAA [CACACA_negctrl_site755] | 9.8
13 | ACAGGATTGGTTCAAACACACATATTATAGGACTAT [CACACA_site6455] | 9.79
14 | AATATGTTTTGTTAGGTTGGTGTTGGTAGAATGTTT [CACACA_negctrl_site1563] | 9.85
15 | AAAAAAAAATCATATTGTACGTAAAAAAAAAAAAAA [XGTACX_site476] | 9.37
16 | AAAAAAAAAAAAAATACACACACACCGATATATATA [CACACA_site8142] | 10.6
17 | ATACATATAATAATATGTACATATAATTATATATAT [XGTACX_site913] | 9.7
18 | AATATAATATACATATGTACATATATATATATATAT [XGTACX_site8218] | 9.77
19 | TATAACACACAATGATGTACATTACATTATTTTTTA [XGTACX_site2076] | 9.71
20 | TTTTCTATATAACAACGTACATTTATTATATTATAA [XGTACX_site6148] | 9.46
21 | ATATATATATATATGTGTACATATTTTTTTGAAGTG [XGTACX_site248] | 9.82
22 | TAATATAAATGAAAGGTGCTTTTGCTTTCTTTTTTT | 9.56
23 | TAATATATTTTTAACATGCACTGTATTTTAATATAT | 9.64
24 | TCTGGATTGGATTACAAGAAAATAAAATATAAAATA [CACACA_negctrl_site122] | 9.35
25 | TATACAAATATATATGCACACACATATATGTATATG [CACACA_site9007] | 10
